# Experimental data from PMC4336329 (PLoS ONE, 2015).
# Among all 310,000 compounds or so, about 14,000 (4.5%) showed an effect of 50% or more. Effects have a minus sign here. This is one part of the list.
# Target: human ether-à-go-go-related gene (hERG) potassium channel (human, UniProt Q12809)
# Experiment: primary screen, population patch clamp on CHO cells stably expressing hERG
# 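Note: peak tail current of the secondary pulse compared with the same well before compound.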
# Sequence of human ether-à-go-go-related gene (hERG) potassium channel (Q12809 whole entry, looked up): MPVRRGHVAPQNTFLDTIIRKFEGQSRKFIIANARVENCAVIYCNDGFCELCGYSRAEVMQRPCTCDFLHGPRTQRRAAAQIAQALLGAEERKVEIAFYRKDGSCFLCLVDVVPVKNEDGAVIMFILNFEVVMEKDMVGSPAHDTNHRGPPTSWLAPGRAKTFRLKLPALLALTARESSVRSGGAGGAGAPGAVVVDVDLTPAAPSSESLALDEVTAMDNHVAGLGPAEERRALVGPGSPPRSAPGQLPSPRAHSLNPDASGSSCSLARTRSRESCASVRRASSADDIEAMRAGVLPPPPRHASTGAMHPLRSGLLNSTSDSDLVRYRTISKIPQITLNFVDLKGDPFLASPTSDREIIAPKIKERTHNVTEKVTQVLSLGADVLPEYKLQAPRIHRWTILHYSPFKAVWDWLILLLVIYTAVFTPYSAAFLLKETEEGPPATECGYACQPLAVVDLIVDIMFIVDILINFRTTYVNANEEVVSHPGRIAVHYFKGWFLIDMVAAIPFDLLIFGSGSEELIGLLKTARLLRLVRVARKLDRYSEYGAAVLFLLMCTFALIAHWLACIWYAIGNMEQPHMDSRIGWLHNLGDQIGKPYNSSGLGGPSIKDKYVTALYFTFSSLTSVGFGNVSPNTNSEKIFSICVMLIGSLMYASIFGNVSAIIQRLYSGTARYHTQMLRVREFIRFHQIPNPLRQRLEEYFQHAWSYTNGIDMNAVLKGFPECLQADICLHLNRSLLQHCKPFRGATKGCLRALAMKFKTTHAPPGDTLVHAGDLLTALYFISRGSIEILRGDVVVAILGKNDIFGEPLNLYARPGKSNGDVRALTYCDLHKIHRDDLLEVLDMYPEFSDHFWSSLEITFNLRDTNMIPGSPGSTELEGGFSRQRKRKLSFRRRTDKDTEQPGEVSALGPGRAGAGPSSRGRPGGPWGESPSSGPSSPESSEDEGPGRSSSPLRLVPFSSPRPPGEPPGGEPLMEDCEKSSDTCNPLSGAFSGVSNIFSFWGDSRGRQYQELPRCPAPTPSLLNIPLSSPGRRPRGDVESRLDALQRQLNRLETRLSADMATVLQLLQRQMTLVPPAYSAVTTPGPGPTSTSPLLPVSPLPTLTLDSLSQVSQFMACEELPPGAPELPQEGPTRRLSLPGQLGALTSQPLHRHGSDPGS
row,Compound,"hERG current change (%, negative = inhibition) at 10uM [%]"
1,CC(=O)O[C@H]1CC[C@@]2(C)C(=CC[C@@H]3[C@@H]2CC[C@]2(C)C(=O)CC[C@@H]32)C1,21.1
2,CCN(CC)C(=O)CSc1nnc(-c2ccccn2)n1-c1ccc(C)c(C)c1,-24.8
3,CCN(C(=O)C(C)N1C(=O)/C(=C/c2cccs2)SC1=S)C1CCS(=O)(=O)C1 (stereo not drawn),-27.3
4,COc1ccc(NC2CCCN(C(=O)C3(C)CCCCC3)C2)cc1OC (stereo not drawn),11.3
5,O=C(OCc1cccc([N+](=O)[O-])c1)c1ccncc1,-18.8
6,COCCNC(=O)CCn1nc(-c2ccc(C)cc2)ccc1=O,-34.4
7,O=C(Cn1c(=O)n(Cc2ccccc2)c(=O)c2cc(Cl)ccc21)NCC1CCCO1 (stereo not drawn),-10.2
8,CC(C)C(C(=O)NCC1CCCO1)N(C(=O)CNS(=O)(=O)c1ccc(F)cc1)c1ccccc1 (stereo not drawn),-0.122
9,Cc1[nH]nc(-c2ccc(OCc3cnn(-c4ccccc4)c3)cc2O)c1Oc1ccc(Cl)cc1,13.6
10,COc1cc(OC)c(Nc2cc(C)nc3nc(C)nn23)cc1Cl,6.1
11,Cc1ccc(Nc2nnc(SCC(=O)c3c(N)n(C4CC4)c(=O)[nH]c3=O)s2)cc1C,11.6
12,CSc1ncc(S(=O)(=O)c2ccccc2)c(=O)[nH]1,5.18
13,COc1cc(OC)c(OC)cc1CN1CCCC(C(=O)N2CCCCC2)C1.O=C(O)C(=O)O (stereo not drawn),-1.45
14,O=S1(=O)N=C(N/N=C/c2ccco2)c2ccccc21,13.1
15,O=C(CN1CCOCCOCCOCC1)Nc1ccccc1,12.4
16,O=C(Nc1ccc(Cl)cn1)c1ccc(-c2cc(Cl)ccc2Cl)o1,-1.49
17,Cc1cc(C)nc(NC(=O)c2c(Cl)cccc2Cl)n1,-1.27
18,CN(C)/C=C/C(=C\C(=O)C(F)(F)F)Nc1ccc(C(F)(F)F)cc1,2.83
19,O=C(NC(=S)Nc1ccc(S(=O)(=O)N2CCCCC2)cc1)c1cccs1,2.12
20,Cc1ccccc1CNC(=O)C1CCCN(c2nnc(C)c3c(C)n(-c4ccccc4)nc23)C1 (stereo not drawn),-5.38
21,CCOC(=O)c1c(NC(=O)COc2ncnc3ccccc23)sc(C)c1C,-1.81
22,Cc1noc(C)c1C(=O)OCC(=O)NCCc1ccccc1,4.78
23,Cn1nnc(C(O)CN2CCOCC2)n1 (stereo not drawn),-0.784
24,COc1ccc(S(=O)(=O)Nc2c(C(=O)O)[nH]c3ccccc23)c(OC)c1,-2.48
25,O=C(Nc1ccccc1Br)C1CCC(=O)N1Cc1ccccc1Cl (stereo not drawn),-5.41
26,COc1ccc2c(c1OC)C(=O)N(c1ccc3c(c1)CCC3)C2=O,1.86
27,O=C(CN1CCOCC1)Nc1c2c(nc3c1CCC3)CCC2.O=C(O)C(=O)O,15.4

row,Compound,"hERG current change (%, negative = inhibition) at 10uM [%]"
1,Cc1cccc(N(C(=O)CCC(=O)Nc2cc(C)on2)C(C(=O)NC2CCCC2)c2ccc(C)o2)c1 (stereo not drawn),8.88
2,CCOC(=O)Cc1nnc(Nc2cccc(C)c2)c2ccccc12,-18.6
3,CC(NC(=O)Cc1ccc([N+](=O)[O-])cc1)c1ccc2c(c1)OCO2 (stereo not drawn),-19.6
4,CCOC(=O)C1=C(C)OC(N)=C(C(=O)OCC)[C@@]12C(=O)N(CC(N)=O)c1ccccc12,11.5
5,Cc1cc(Br)ccc1NC(=O)CNC(=O)CN1C(=O)NC2(CCCCCC2)C1=O,2.17
6,O=C1Nc2cc(S(=O)(=O)N3CCCC3)ccc2N2CCCC12 (stereo not drawn),4.26
7,NC(=O)COC(=O)c1cccc(S(=O)(=O)N2CCN(c3ccc(F)cc3)CC2)c1,0.497
8,COc1ccc(/C=N/n2c(-c3n[nH]c4c3CCC4)n[nH]c2=S)c(OC)c1OC,20.7
9,O=C(O)CCNS(=O)(=O)c1ccc2ccccc2c1,16.6
10,COc1ccc(CCNC(=O)C23CCC(C)(C(=O)O2)C3(C)C)cc1OC (stereo not drawn),1.89
11,O=S(=O)(Nc1ccc2nc(C(F)(F)F)[nH]c2c1)c1ccccc1,8.26
12,O=C(/C=C/c1ccco1)Nc1ccc(Oc2ccc(Cl)cc2)cc1,16.1
13,CCN(CC)C(=O)Cn1cc(/C=C2\C(=O)NC(=O)N(c3ccccc3F)C2=O)c2ccccc21,6.39
14,COc1cc2c(cc1OC)C(COc1ccc(F)cc1)N(C(C)=O)CC2 (stereo not drawn),-11.9
15,CCOc1ccccc1CN1CCN(S(=O)(=O)CC)CC1.O=C(O)C(=O)O,10.7
16,CCOc1ccc(N2C(=O)/C(=C/c3ccccc3OCC(=O)OC)N(CC(=O)OC)C2=S)cc1,-4.43
17,CC12CCC(C(=O)Nc3cccc(Cl)c3Cl)([C@H](Br)C1=O)C2(C)C (stereo partly drawn),-39.6
18,O=C(O)/C=C/C(=O)NNC(=O)c1cccc(Br)c1,3.74
19,CN(CC(=O)Nc1cccc(F)c1)C(=O)c1cccc(N2C(=O)CCC2=O)c1,7.61
20,CCC(=O)N1CCc2cc(S(=O)(=O)NCCC(=O)NCc3ccccc3OC)ccc21,9.13
21,O=C(CSc1nc2cc(Cl)ccc2o1)NCCc1ccccc1,3.36
22,CC(C)(C)C1CCC(C(=O)OCC(=O)N2CCOCC2)CC1 (stereo not drawn),-4.85
23,Cc1ccc(S(=O)(=O)N2CCC(C(=O)OCC(=O)NC(C)c3ccc(F)cc3)CC2)cc1C (stereo not drawn),-45.2
24,Nc1sc(-c2ccccc2)c(Cc2ccccc2)c1C(=O)O,-2.59
25,CC(=O)Nc1cccc(C(=O)N(CCc2ccccc2)Cc2ccccc2)c1,-3.89
26,CCc1c(C(=O)NNC(=S)NCC2CCCO2)csc1C (stereo not drawn),-7.27
27,Cc1noc(C)c1CCC(=O)N1CCCC(N2CCN(c3ccc(F)cc3)CC2)C1 (stereo not drawn),-53.4
